# Measurements as given in the supplement of paper PMC8728848.
# The list shows a part of the results.
# Key:
# Assay in all cases: glycan array binding signal (z-score within array); higher = stronger binding
# Details in all cases: glycan notation: IUPAC condensed, linker removed
# [1] = molecular target: Gal(b1-4)GlcNAc(b1-2)Man(a1-3)[Gal(b1-4)GlcNAc(b1-2)Man(a1-6)]Man(b1-4)GlcNAc(b1-4)[Fuc(a1-6)]GlcNAc
# Method in brief: (§1)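 Arrays were curated from the Consortium for Functional Glycomics database, 3228 in total, and kept only where the protein sequence was available. Binding is expressed as a within-array Z-score. This score was averaged across arrays of the same protein sequence at different concentrations or buffers and across linkers, and negative values can be read as non-binding.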
# [2] = molecular target: Gal(b1-4)GlcNAc(b1-2)Man(a1-3)[Gal(b1-4)GlcNAc(b1-2)Man(a1-6)][Gal(b1-4)GlcNAc(b1-4)]Man(b1-4)GlcNAc(b1-4)[Fuc(a1-6)]GlcNAc
# Method in brief: as §1
# [3] = molecular target: Gal(b1-4)GlcNAc(b1-2)Man(a1-3)[Gal(b1-4)GlcNAc(b1-2)Man(a1-6)][GlcNAc(b1-4)]Man(b1-4)GlcNAc(b1-4)[Fuc(a1-6)]GlcNAc
# Method in brief: as §1
# [4] = molecular target: Gal(b1-4)GlcNAc(b1-2)Man(a1-3)[GlcNAc(b1-2)Man(a1-6)]Man(b1-4)GlcNAc(b1-4)GlcNAc
# Method in brief: as §1
# [5] = molecular target: Gal(b1-4)GlcNAc(b1-2)Man(a1-3)[GlcNAc(b1-4)][Gal(b1-4)GlcNAc(b1-2)Man(a1-6)]Man(b1-4)GlcNAc(b1-4)GlcNAc
# Method in brief: as §1
# [6] = molecular target: Gal(b1-4)GlcNAc(b1-2)Man(a1-3)[Man(a1-6)]Man(b1-4)GlcNAc(b1-4)GlcNAc
# Method in brief: as §1
# [7] = molecular target: Gal(b1-4)GlcNAc(b1-2)Man(a1-6)Man(b1-4)GlcNAc(b1-4)GlcNAc
# Method in brief: as §1
# [8] = molecular target: Gal(b1-4)GlcNAc(b1-2)Man(a1-6)[GlcNAc(b1-2)Man(a1-3)]Man(b1-4)GlcNAc(b1-4)GlcNAc
# Method in brief: as §1
# [9] = molecular target: Gal(b1-4)GlcNAc(b1-2)Man(a1-6)[Man(a1-3)]Man(b1-4)GlcNAc(b1-4)GlcNAc
# Method in brief: as §1
# [10] = molecular target: Gal(b1-4)GlcNAc(b1-2)[Gal(b1-4)GlcNAc(b1-4)]Man(a1-3)[Gal(b1-4)GlcNAc(b1-2)Man(a1-6)]Man(b1-4)GlcNAc(b1-4)GlcNAc
# Method in brief: as §1
# [11] = molecular target: Gal(b1-4)GlcNAc(b1-2)[Gal(b1-4)GlcNAc(b1-4)]Man(a1-3)[Gal(b1-4)GlcNAc(b1-2)[Gal(b1-4)GlcNAc(b1-6)]Man(a1-6)]Man(b1-4)GlcNAc(b1-4)GlcNAc
# Method in brief: as §1
# [12] = molecular target: Gal(b1-4)GlcNAc(b1-2)[Gal(b1-4)GlcNAc(b1-4)]Man(a1-3)[GlcNAc(b1-4)][Gal(b1-4)GlcNAc(b1-2)Man(a1-6)]Man(b1-4)GlcNAc(b1-4)GlcNAc
# Method in brief: as §1
# [13] = molecular target: Gal(b1-4)GlcNAc(b1-2)[Gal(b1-4)GlcNAc(b1-4)]Man(a1-3)[GlcNAc(b1-4)][Gal(b1-4)GlcNAc(b1-2)[Gal(b1-4)GlcNAc(b1-6)]Man(a1-6)]Man(b1-4)GlcNAc(b1-4)GlcNAc
# Method in brief: as §1
# [14] = molecular target: Gal(b1-4)GlcNAc(b1-2)[Gal(b1-4)GlcNAc(b1-6)]Man(a1-6)[Gal(b1-4)GlcNAc(b1-2)Man(a1-3)]Man(b1-4)GlcNAc(b1-4)GlcNAc
# Method in brief: as §1
# [15] = molecular target: Gal(b1-4)GlcNAc(b1-2)[Gal(b1-4)GlcNAc(b1-6)]Man(a1-6)[Gal(b1-4)GlcNAc(b1-2)Man(a1-3)]Man(b1-4)GlcNAc(b1-4)[Fuc(a1-6)]GlcNAc
# Method in brief: as §1
# [16] = molecular target: Gal(b1-4)GlcNAc(b1-2)[Gal(b1-4)GlcNAc(b1-6)]Man(a1-6)[GlcNAc(b1-4)][Gal(b1-4)GlcNAc(b1-2)Man(a1-3)]Man(b1-4)GlcNAc(b1-4)GlcNAc
# Method in brief: as §1
# [17] = molecular target: Gal(b1-4)GlcNAc(b1-2)[Gal(b1-4)GlcNAc(b1-6)]Man(a1-6)[GlcNAc(b1-4)][Gal(b1-4)GlcNAc(b1-2)[Gal(b1-4)GlcNAc(b1-4)]Man(a1-3)]Man(b1-4)GlcNAc(b1-4)[Fuc(a1-6)]GlcNAc
# Method in brief: as §1
# [18] = molecular target: Gal(b1-4)GlcNAc(b1-3)Gal(b1-3)GalNAc
# Method in brief: as §1
# [19] = molecular target: Gal(b1-4)GlcNAc(b1-3)Gal(b1-3)GlcNAc
# Method in brief: as §1
# [20] = molecular target: Gal(b1-4)GlcNAc(b1-3)Gal(b1-4)Glc
# Method in brief: as §1
# [21] = molecular target: Gal(b1-4)GlcNAc(b1-3)Gal(b1-4)GlcNAc
# Method in brief: as §1
# [22] = molecular target: Gal(b1-4)GlcNAc(b1-3)Gal(b1-4)GlcNAc(b1-2)Man(a1-3)[Gal(b1-4)GlcNAc(b1-3)Gal(b1-4)GlcNAc(b1-2)Man(a1-6)]Man(b1-4)GlcNAc(b1-4)GlcNAc
# Method in brief: as §1
# [23] = molecular target: Gal(b1-4)GlcNAc(b1-3)Gal(b1-4)GlcNAc(b1-2)Man(a1-3)[Gal(b1-4)GlcNAc(b1-3)Gal(b1-4)GlcNAc(b1-2)Man(a1-6)]Man(b1-4)GlcNAc(b1-4)[Fuc(a1-6)]GlcNAc
# Method in brief: as §1
binder,measurement,setting,value
Pwp4 (Candida glabrata) (protein) MGSSHHHHHHSSGLVPRGSHMASVGNPITVSNVCSFPKNWHRTAGFRALTARLGIGIQSDSYKELLNYPGTFQLTTQQSSTTKPNFQISGLVGNIYGLTIVPSYLLVELTGYFVPPVSGEYTFSLEGSDDAAIIFIANPSTFKCGHVEDWPTAYDNDVTVTESIHATRTIYMIEGVAYPIRIAYYNGLSLGKLQASFTDPEGVKRVDWNGYIWRYDSCDTCSYV,glycan array binding signal (z-score),[1],-0.374
same,glycan array binding signal (z-score),[2],-0.133
same,glycan array binding signal (z-score),[3],-0.612
same,glycan array binding signal (z-score),[4],-0.429
same,glycan array binding signal (z-score),[5],-0.7
same,glycan array binding signal (z-score),[6],-0.055
same,glycan array binding signal (z-score),[7],-0.472
same,glycan array binding signal (z-score),[8],-0.564
same,glycan array binding signal (z-score),[9],1.34
same,glycan array binding signal (z-score),[10],0.491
same,glycan array binding signal (z-score),[11],-0.611
same,glycan array binding signal (z-score),[12],-0.523
same,glycan array binding signal (z-score),[13],-0.001
same,glycan array binding signal (z-score),[14],-0.295
same,glycan array binding signal (z-score),[15],0.554
same,glycan array binding signal (z-score),[16],-0.051
same,glycan array binding signal (z-score),[17],-0.565
same,glycan array binding signal (z-score),[18],-0.549
same,glycan array binding signal (z-score),[19],-0.108
same,glycan array binding signal (z-score),[20],-0.365
same,glycan array binding signal (z-score),[21],0.144
same,glycan array binding signal (z-score),[22],0.09
same,glycan array binding signal (z-score),[23],0.584
